Experimental data as given in PubChem BioAssay AID485294 (National Center for Advancing Translational Sciences (NCATS), 2010).
In all, about 370,000 compounds went through this assay and about 150 (0.041%) were called active. The inconclusive results got no clear call from the source; some entries with a clear call stand among them for comparison. The call rests on the fitted dose curve; in most records, active means well fitted inhibition curve with a large enough effect; inconclusive means small, poorly fitted or top-dose-only effect; inactive means flat fitted curve, though single readings scatter. No potency is given beside an inconclusive call; the fits are too rough.
Further: nearly all actives have a fitted effect of over 25% in size.
Potency means the concentration at half of the fitted maximal effect; tags describe the fitted curve by direction and shape.
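Wherever activity change, negative = inhibition is given: 0% = no-compound wells and -100% = no-enzyme wells.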

What follows are molecules tested against Beta-lactamase (Escherichia coli (strain K12)) (UniProt P00811) (assay: qHTS Inhibitors of AmpC Beta-Lactamase (assay with detergent)). Settings: AmpC hydrolysis of nitrocefin, absorbance 480 nm, 0.01% Triton; activity change, negative = inhibition: at 114 µM (top of the series).
Chain of UniProt P00811 (P00811 whole entry, looked up): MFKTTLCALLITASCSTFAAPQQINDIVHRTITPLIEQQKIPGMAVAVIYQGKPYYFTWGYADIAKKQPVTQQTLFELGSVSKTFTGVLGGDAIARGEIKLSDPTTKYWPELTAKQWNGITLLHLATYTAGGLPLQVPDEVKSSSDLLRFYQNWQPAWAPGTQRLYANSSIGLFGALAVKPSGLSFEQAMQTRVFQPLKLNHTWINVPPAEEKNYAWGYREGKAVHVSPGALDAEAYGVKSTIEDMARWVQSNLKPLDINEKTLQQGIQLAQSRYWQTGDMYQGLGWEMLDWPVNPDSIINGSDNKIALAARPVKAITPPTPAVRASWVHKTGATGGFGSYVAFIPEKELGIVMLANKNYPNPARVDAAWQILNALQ
In short: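 AmpC (5.3 nM in the dispensed reagent) in 20 mM phosphate pH 7.0 with 0.01% (detergent screen) or 0.0001% Triton X-100 was preincubated with compounds for 15 min at room temperature. Nitrocefin was then added from an 800 uM solution, and hydrolysis was followed at 480 nm.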
`COc1ccccc1N1CCN(CC(O)COc2ccc(S(=O)(=O)N3CCOCC3)cc2)CC1` (stereo not drawn) was tested, and the Potency was inconclusive [inhibitor, partial curve].
`O=C(Nc1ccccc1)C(=O)Nc1ccc2c(c1)N(C(=O)C1CC1)CCC2` was tested, and the Potency was inconclusive [inhibitor, partial curve].
`O=C(Nc1ccc(N2C(=O)C3C4C=CC(C4)C3C2=O)cc1Cl)c1cccs1` (stereo not drawn) was tested, and the Potency was inconclusive [inhibitor, full curve, poor fit].
For `C[C@]12C(=O)N(c3cccc(Cl)c3)C(=O)N1[C@H]1c3ccccc3OC[C@@H]1[C@H]2c1ccccc1`, the Potency was inconclusive [inhibitor, full curve, poor fit].
For `CCN(c1ccccc1)S(=O)(=O)c1cc(NC(=O)CSc2n[nH]c(=O)[nH]c2=O)ccc1Cl`, the “activity change, negative = inhibition” value was inactive: -9.35%.
With `CCN1CCN(Cc2ccc(NC(=O)c3cc(NC(=O)c4cc(-c5ccc(OC)cc5)n[nH]4)cc(OC)c3)cc2C(F)(F)F)CC1` the “activity change, negative = inhibition” value was inactive: 3.63%.
In the case of `Brc1ccc(CNCC2CCCO2)cc1` (stereo not drawn), the Potency is reported as inconclusive [inhibitor, full curve, poor fit].
`CCSc1nc(NCCN(C)C)c2c3c(sc2n1)COC(C)(CC)C3` (stereo not drawn) was tested, and the “activity change, negative = inhibition” value was inactive: 8.29%.
For `CCCn1c(C(C)Nc2nc(-c3cccc(Br)c3)cs2)nc2ccccc21` (stereo not drawn), the Potency was inconclusive [inhibitor, single point].
For `CCN1CCN(C(=O)c2cc3c(-c4ccc(Cl)cc4)nn(C)c3s2)CC1`, the Potency was inconclusive [inhibitor, full curve, poor fit].
In the case of `CN(Cc1nccs1)C(=O)CC1C(=O)NCCN1Cc1ccc(-c2ccccc2)cc1` (stereo not drawn), the “activity change, negative = inhibition” value is reported as inactive: 6.57%.
In the case of `CCOCCCNC(=O)C1CCN(c2cc(C)nc3c(-c4ccc(OC)c(OC)c4)c(C)nn23)CC1`, the Potency is reported as inconclusive [inhibitor, partial curve, poor fit].
`COc1cccc(C(C)NC(=S)NCc2ccc(F)cc2)c1` (stereo not drawn) was tested, and the Potency was inconclusive [inhibitor, full curve].
In the case of `CC(=O)Nc1ccc(NC(=O)c2ccc(-c3ccccc3Cl)o2)cc1`, the Potency is reported as inconclusive [inhibitor, full curve, poor fit].
`CCCn1c(=O)sc2cc(NC(=O)c3ccc(OC)c(Br)c3)ccc21` was tested, and the “activity change, negative = inhibition” value was inactive: -2.24%.
With `CC(C)(C)c1ccccc1NC(=O)C1=COCCO1` the Potency was inconclusive [inhibitor, partial curve, poor fit].
For `Cc1cc(C)c(S(=O)(=O)N2CCN(C(=O)CCOc3ccccc3C)CC2)c(C)c1`, the Potency was inconclusive [inhibitor, full curve, poor fit].
In the case of `CCc1nn2c(=O)cc(COC(=O)CNC(=O)COc3ccc(C)cc3)nc2s1`, the “activity change, negative = inhibition” value is reported as inactive: -2.27%.
With `CCOc1ccc(N2C(=O)CC(SCCN)C2=O)cc1` (stereo not drawn) the Potency was inconclusive [inhibitor, partial curve, poor fit].
For `O=C(NCC1CC1)[C@@H]1C[C@H]1[C@@H](NP(=O)(c1ccccc1)c1ccccc1)c1ccccc1`, the Potency was inconclusive [inhibitor, full curve].
With `COc1cc(SC)ccc1C(=O)N1CCCc2ccccc21` the Potency was inconclusive [inhibitor, partial curve].
For `O=[N+]([O-])c1ccc2nc(NS(=O)(=O)c3ccccc3[N+](=O)[O-])sc2c1`, the Potency was inconclusive [inhibitor, single point].
In the case of `Cc1ccc(-n2nc(CO)c(C(=O)NC(C)CCCc3ccccc3)n2)cc1` (stereo not drawn), the “activity change, negative = inhibition” value is reported as inactive: -3.55%.
In the case of `CC(C)c1ccc2[nH]c3c(c2c1)[C@@H]1CCN2C(=O)CCC[C@H](C3)[C@H]12`, the Potency is reported as inconclusive [inhibitor, full curve, poor fit].
In the case of `CCOc1ccc(NC(=O)CN(C)C(=O)C2CC(=O)N(Cc3ccco3)C2)cc1OCC` (stereo not drawn), the Potency is reported as inconclusive [inhibitor, full curve, poor fit].
In the case of `O=C(Nc1cccnc1)c1ccc2nc(-c3ccccc3)c(-c3ccccc3)nc2c1`, the Potency is reported as inconclusive [inhibitor, full curve].
With `CS(=O)(=O)N(CC(=O)NCc1ccccn1)c1ccc2c(c1)OCCO2` the “activity change, negative = inhibition” value was inactive: -0.136%.
`COc1ccc(NS(=O)(=O)c2ccc(C)c(C(=O)NCC(c3cccs3)N3CCOCC3)c2)cc1` (stereo not drawn) was tested, and the Potency was inconclusive [inhibitor, single point].
With `CC(C)NC(=O)C1CCN(Cc2cnn(-c3ccccc3)c2-n2cccc2)CC1` the Potency was inconclusive [inhibitor, full curve, poor fit].
For `COc1ccc(C(=O)COC(=O)C2CC3CCCC(C2)C3=O)cc1Br` (stereo not drawn), the “activity change, negative = inhibition” value was inactive: -15.9%.
In the case of `CC#CCCc1nc2ccccc2c(=O)n1N`, the “activity change, negative = inhibition” value is reported as inactive: -6.4%.
With `Cc1ccc(C(=O)n2ncn(C)c2=S)cc1` the “activity change, negative = inhibition” value was inactive: 1.89%.
`Cc1cccc(C(=O)O/N=C/c2ccc(Br)cc2)c1` was tested, and the Potency was inconclusive [inhibitor, single point].
With `CCOc1ccccc1NC(=S)N1C2CCC1CC(NC(=O)NC13CC4CC(CC(C4)C1)C3)C2` (stereo not drawn) the “activity change, negative = inhibition” value was inactive: 2.32%.
For `CC1CCCN(CCOc2cccc(Oc3ccccc3)c2)C1` (stereo not drawn), the Potency was inconclusive [inhibitor, full curve, poor fit].
For `O=C(NC1CCCCCCC1)c1cc([N+](=O)[O-])ccc1Cl`, the Potency was inconclusive [inhibitor, full curve, poor fit].
`CC(C)C[C@@H]1NC(=O)[C@H](C(C)C)NC(=O)c2cc([N+](=O)[O-])cc(I)c2OCC[C@@H](C(N)=O)NC1=O` was tested, and the Potency was inconclusive [inhibitor, partial curve, poor fit].
In the case of `Cc1cc(C)cc(NC(=S)Nc2ccc(Cl)c(Cl)c2)c1`, the Potency is reported as inconclusive [inhibitor, full curve, poor fit].
`Cc1cccc(C2C=C(c3ccc(C)c(C)c3)Nc3nnnn32)c1` (stereo not drawn) was tested, and the “activity change, negative = inhibition” value was inactive: -7.97%.
For `COc1cccc(Nc2nc(-c3ccccc3O)nc3ccccc23)c1`, the “activity change, negative = inhibition” value was inactive: -9.38%.
With `Cc1ccccc1Nc1nn2c(=O)c3ccccc3nc2s1` the Potency was inconclusive [inhibitor, single point].
With `Cc1ccccc1-c1nc(CSc2nc3c(c(=O)[nH]2)CCC3)c(C)o1` the Potency was inconclusive [inhibitor, full curve].
With `COc1ccc(NC(=O)O/N=C/c2ccc(Br)cc2)cc1` the “activity change, negative = inhibition” value was inactive: -3.56%.
With `COc1ccc(C2CC(C)(c3ccc(OC)cc3OC)Nc3ccccc3N2)c(OC)c1` (stereo not drawn) the “activity change, negative = inhibition” value was inactive: -2.68%.
With `O=c1cc(-c2cccc(Br)c2)nc(-c2ccccc2F)o1` the Potency was inconclusive [inhibitor, full curve, poor fit].
For `Cn1ccnc1SCC(=O)c1cccc(C(F)(F)F)c1`, the “activity change, negative = inhibition” value was inactive: -13.1%.
`CN(C)C=Nc1nonc1-c1ccccc1` was tested, and the Potency was inconclusive [inhibitor, partial curve, poor fit].
With `COc1ccc(C(=O)NC(=S)NNC(=O)Cc2cccs2)cc1` the Potency was inconclusive [inhibitor, full curve, poor fit].
`CCOc1ccc(NC2=NCCC(=O)N2Cc2cccs2)cc1` was tested, and the Potency was inconclusive [inhibitor, full curve, poor fit].
With `O=C(Nc1ncc2c(n1)CC(c1cccc(Cl)c1)CC2=O)c1ccco1` (stereo not drawn) the “activity change, negative = inhibition” value was inactive: 2.29%.
For `Cc1ccc2oc(=O)c3cc(C(=O)NCCCN4CCc5ccccc5C4)sc3c2c1`, the Potency was inconclusive [inhibitor, full curve, poor fit].
In the case of `CCNC(=O)c1nc[nH]c1C(=O)NCC`, the Potency is reported as inconclusive [inhibitor, partial curve].
In the case of `CCSc1nc2ccc(OC)cc2cc1C#N`, the “activity change, negative = inhibition” value is reported as inactive: -3.37%.
In the case of `CCOC(=O)COn1c(=O)c(-c2ccc(Cl)cc2)[n+]([O-])c2ccccc21`, the Potency is reported as inconclusive [inhibitor, single point].
With `O=C(CCc1ccc(F)c(F)c1)NC1CCCN(Cc2ccc(Cl)cc2)C1` (stereo not drawn) the “activity change, negative = inhibition” value was inactive: -7.65%.
`CC(C)c1ccc(OCC(O)CN2CCN(c3ccccc3)CC2)cc1` (stereo not drawn) was tested, and the Potency was inconclusive [inhibitor, full curve, poor fit].
In the case of `CCOc1ccccc1CNC(=O)C1CCN(S(=O)(=O)c2ccc3[nH]c(=O)ccc3c2)CC1`, the “activity change, negative = inhibition” value is reported as inactive: 0.59%.
For `CCN1C(=O)[C@H]2[C@@H](c3ccc(-c4ccc(F)cc4)cc3)N3CCCC[C@@]3(C(=O)OC)[C@H]2C1=O`, the “activity change, negative = inhibition” value was inactive: 0.259%.
`CC(NC(=O)C1CCCN(S(=O)(=O)c2cnc[nH]2)C1)c1ccccc1` (stereo not drawn) was tested, and the Potency was inconclusive [inhibitor, full curve].
With `COc1ccc(NC(=O)Nc2cccc(NC(C)=O)c2)c(OC)c1` the “activity change, negative = inhibition” value was inactive: 6.61%.
In the case of `Cc1ccc2[nH]c(C)c(/C=C/c3cc[n+](C)cc3)c2c1`, the “activity change, negative = inhibition” value is reported as inactive: -11.2%.
With `CC(=O)Nc1ccc(NC(=O)Cc2ccc(S(=O)(=O)N3CCCCC3)s2)cc1` the Potency was inconclusive [inhibitor, single point].
In the case of `Cc1ccc(N(CC(=O)Nc2ccccc2-c2ccccc2)S(=O)(=O)c2ccccc2)c(C)c1`, the Potency is reported as inconclusive [inhibitor, full curve, poor fit].
For `O=[N+]([O-])c1ccc(NCc2ccc(Cl)cc2)c2ccncc12`, the “activity change, negative = inhibition” value was inactive: -2.47%.
With `COc1ccc(C(=O)NC(=S)NNC(=O)[C@H]2C[C@@H]2c2ccccc2)cc1OC` the “activity change, negative = inhibition” value was inactive: -0.313%.
In the case of `FC(F)(F)c1cc(-c2ccccc2)nc(N2CCCCCC2)n1`, the Potency is reported as inconclusive [inhibitor, full curve, poor fit].
`Cc1ccccc1-c1nc(CN2CCC(C(=O)NCCCN3CCCC3)CC2)c(C)o1` was tested, and the Potency was inconclusive [inhibitor, partial curve, poor fit].
In the case of `O=C(COC(=O)CNC(=O)c1ccc(Cl)cc1)Nc1ccc2c(c1)OCCO2`, the Potency is reported as inconclusive [inhibitor, partial curve, poor fit].
